# Data taken from PubChem BioAssay AID485294 (National Center for Advancing Translational Sciences (NCATS), 2010).
# In all, about 370,000 compounds went through this assay and about 150 (0.041%) were called active. The inconclusive results got no clear call from the source; some entries with a clear call stand among them for comparison. Calls come from the whole dose curve; as a rule, active = well fitted inhibition curve with a large enough effect; inconclusive = small, poorly fitted or top-dose-only effect; inactive = flat fitted curve, though single readings scatter. No potency is given beside an inconclusive call; the fits are too rough.
# Target: Beta-lactamase (Escherichia coli (strain K12)) (UniProt P00811)
# Test: qHTS Inhibitors of AmpC Beta-Lactamase (assay with detergent); note: nearly all actives have a fitted effect of over 25% in size;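 for activity change, negative = inhibition: 0% = no-compound wells and -100% = no-enzyme wells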
# Conditions: AmpC hydrolysis of nitrocefin, absorbance 480 nm, 0.01% Triton; activity change, negative = inhibition: at 114 µM (top of the series)
# In short: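 20 mM phosphate pH 7.0 + 0.01% (detergent screen) or 0.0001% Triton X-100; 5.3 nM AmpC reagent; cpd preinc 15 min RT; nitrocefin (800 uM stock) to start; A480 q20 s × 4 min; Activity was normalised to no-enzyme and no-compound control wells.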
# Potency is the fitted concentration of half-maximal effect; tags give direction and shape of the fitted curve.
# UniProt P00811, sequence (P00811 whole entry, looked up): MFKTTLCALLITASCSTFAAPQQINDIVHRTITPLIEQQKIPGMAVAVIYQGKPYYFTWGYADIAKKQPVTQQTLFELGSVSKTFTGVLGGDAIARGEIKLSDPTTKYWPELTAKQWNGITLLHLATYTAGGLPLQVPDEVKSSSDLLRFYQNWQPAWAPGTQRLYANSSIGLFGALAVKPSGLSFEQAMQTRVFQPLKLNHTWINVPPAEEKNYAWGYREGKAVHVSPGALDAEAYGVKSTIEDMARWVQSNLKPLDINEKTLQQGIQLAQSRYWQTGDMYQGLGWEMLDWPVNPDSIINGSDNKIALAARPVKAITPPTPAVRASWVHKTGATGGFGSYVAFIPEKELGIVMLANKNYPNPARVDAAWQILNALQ
Compound,Potency,"activity change, negative = inhibition"
FC(F)(F)c1cccc(-n2cccc2/C=N/n2cnnc2)c1,"inconclusive [inhibitor, full curve, poor fit]",–
O=C(CSc1ncn[nH]1)N(C1CCCCC1)C1CCCCC1,"inconclusive [inhibitor, single point]",–
O=C1CCc2cc(S(=O)(=O)N3CCC(C(=O)NC4CCCc5ccccc54)CC3)ccc2N1 (stereo not given),"inconclusive [inhibitor, single point]",–
COc1ccc(C)cc1N=Nc1ccc(O)c2ncccc12,inactive,–
CCCN1CCC2(CC1)NC(CO)(CO)CO2,"inconclusive [inhibitor, partial curve, poor fit]",–
COc1ccc(Cl)cc1NC(=O)C1CCCN(S(=O)(=O)c2ccc3c(c2)CCCC(=O)N3)C1 (stereo not given),"inconclusive [inhibitor, full curve, poor fit]",–
COCCOC(=O)C1=C(C)Nc2ncnn2C1c1ccc(F)cc1 (stereo not given),"inconclusive [inhibitor, full curve, poor fit]",–
COC(=O)Cn1c(=NC(=O)c2cccc(OC)c2)sc2cc(OC)ccc21,"inconclusive [inhibitor, full curve, poor fit]",–
CCCCc1ccc(NC(=O)CSc2nc(=O)n(CCN(CC)CC)c3c2CCC3)cc1,"inconclusive [inhibitor, full curve, poor fit]",–
COCCCNC(=O)Cn1nnc(-c2ccc(NC(=O)c3ccccc3OC)cc2)n1,"inconclusive [inhibitor, partial curve, poor fit]",–
Cc1ccc2c(CC(=O)Nc3ccc(S(=O)(=O)N4CCC(C)CC4)cc3)coc2c1,inactive,–
COc1cccc(C(=O)Nc2ccc(F)cc2F)c1,"inconclusive [inhibitor, partial curve]",–
O=C(c1ccc2nc(N3CCOCC3)sc2c1)N1CCN(c2ccc(Cl)cc2)CC1,"inconclusive [inhibitor, full curve]",–
COc1ccc(CC(=O)NCc2ccccc2)cc1,"inconclusive [inhibitor, full curve, poor fit]",–
COc1ccc(OCCNC2CCCC2)cc1,"inconclusive [inhibitor, partial curve, poor fit]",–
O=C1C2C3C=CC(CC3)C2C(=O)N1c1ccc(Cl)cc1 (stereo not given),"inconclusive [inhibitor, full curve]",–
CCCn1c2ccccc2c2cnn(CC(=O)Nc3ccccc3OC)c(=O)c21,inactive,–
OCc1nc2ccccc2n1CCCOc1ccccc1,inactive,–
COC(=O)c1ccccc1NC(=O)Cn1nc(C)c2nn(-c3ccc(Cl)cc3)c(C)c2c1=O,inactive,–
COc1ccc([C@]23Cc4cc(OC)c(OC)cc4C(O2)c2c(cc(C)oc2=O)O3)cc1,"inconclusive [inhibitor, full curve]",–
CC(=O)Nc1ccc(OC(=O)c2cc3cc(Br)cc(Br)c3oc2=O)cc1,"inconclusive [inhibitor, partial curve]",–
O=Cc1ccc(-c2ccc(F)cc2)o1,inactive,–
COc1ccccc1NC(=S)NC(=O)CCc1ccccc1,inactive,–

Compound,Potency,"activity change, negative = inhibition"
O=S(=O)(c1ccc(OCC(O)CN2CCN(c3ccccc3O)CC2)cc1)N1CCOCC1 (stereo not given),"inconclusive [inhibitor, full curve]",–
O=C1OC(c2ccccc2)c2ccc3ccccc3c21 (stereo not given),–,inconclusive: -19.8% [inhibitor]
COc1ccc(NC(=O)CCN2CCCCCC2)c(OC)c1,"inconclusive [inhibitor, full curve, poor fit]",–
Cc1ccc(S(=O)(=O)N(Cc2ccc(Cl)cc2)c2ccccc2C(=O)NCc2cccnc2)cc1,"inconclusive [inhibitor, partial curve, poor fit]",–
COc1ccc2sc(NC(=O)CC(C)C)nc2c1,inactive,–
CCOc1ccc(S(=O)(=O)NCCC(=O)N2CCCCCCC2)cc1,"inconclusive [inhibitor, full curve]",–
O=C(Cc1ccccc1)NCc1cccnc1,inactive,–
N#CC1=C(N)Oc2c(c(=O)sc3ccccc23)C1c1cccnc1 (stereo not given),inactive,–
CCOc1ccccc1NC(=O)c1ccc2c(c1)C(=O)N(CC(C)C)C2=O,"inconclusive [inhibitor, partial curve, poor fit]",–
Cc1ccc(NC(=O)COC(=O)c2ccc(F)cc2Cl)c(Br)c1,"inconclusive [inhibitor, partial curve]",–
COC(=O)c1cc2c(=O)n3cccc(C)c3nc2n(Cc2cccnc2)c1=N,"inconclusive [inhibitor, full curve]",–
CC(C)NC(=O)c1ccc(OC2CSC2)cc1,"inconclusive [inhibitor, single point]",–
Cc1ccc(-c2nn(-c3ccccc3)cc2/C=N/NC(=O)c2ccc3c(c2)OCO3)cc1,"inconclusive [inhibitor, full curve, poor fit]",–
Cc1ccc2c(Cl)cc(Cl)c(OCC(=O)Nc3cc(S(=O)(=O)N(C)C)ccc3C)c2n1,inactive,–
Cc1c(C)c2c(OCC(=O)NCC(C)C)cc3c(c2oc1=O)CCC(C)(C)O3,inactive,–
CCOC(=O)Nc1nc(-c2ccc(F)cc2F)cs1,inactive,–
COc1cc([N+](=O)[O-])ccc1NC(=O)CCCOc1cccc(C)c1C,"inconclusive [inhibitor, single point]",–
O=C(Nc1ccc(N2CCOCC2)c(Cl)c1)c1ccc([N+](=O)[O-])o1,inactive,–
Cc1ccccc1C(=O)Nc1ccnn1C1CCN(Cc2c(C)n(C)c3ccccc23)CC1,"inconclusive [inhibitor, full curve]",–
O=C(Nc1cccc(F)c1)C1CCN(c2nc3ccccc3nc2C(F)(F)F)CC1,inactive,–
CC(C)(C)SC(=O)CC1NS(=O)(=O)OC2CCCCC12 (stereo not given),"inconclusive [inhibitor, partial curve]",–
Cc1ccc(-n2c3c(c(=O)[nH]c2=O)C(NC(=O)C(C)(C)C)(C(F)(F)F)C(=O)N3)cc1 (stereo not given),"inconclusive [inhibitor, single point]",–
